Measured values published in the supplement of paper PMC3694890.
± gives the uncertainty stated by the source. This is one part of the list. A small y stands for phosphotyrosine.

target: GRB2 (endogenous complexes from cell lysate), P62993; assay: GRB2 complex binding differential signal (pY peptide minus Ala control peptide) (fluorescence intensity units); higher = stronger GRB2 complex binding; conditions: MCF7
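Note: phosphopeptide probes on the chip at 1–4 µM, lysate proteins bound in 20 mM Tris pH 7.0 buffer with 140 mM NaCl, 1% Triton X-100 and 5% glycerol.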

Binder | GRB2 complex binding differential signal
yTMCPE [TENC1_770/A1] | 1320 ± 470
ySLQHF [TENS1_1149/A1] | -96.5 ± 340
yQVSGL [TENS1_1254/A1] | 1380 ± 350
yGGYST [TENS1_1323/A1] | 223 ± 250
ySTPED [TENS1_1326/A1] | 7750 ± 1900
yATING [TENS1_1404/A1] | 1980 ± 620
yNTSDP [TENS1_327/A1] | 1060 ± 1600
yGTSPG [BCAR3_266/A1] | 3040 ± 980
yDNFSG [TENS1_339/A1] | 119 ± 280
yAKVKK [TENS1_366/A1] | 247 ± 250
yDYQPC [TENS1_796/A1] | -312 ± 950
yENQSP [TENS1_903/A1] | 45800 ± 3400
yENLSA [TENS3_333/A1] | 44500 ± 11000
yAKVRK [TENS3_354/A1] | -5.4 ± 300
ySFAPD [TENS3_601/A1] | 350 ± 1100
yDNDAG [TENS3_780/A1] | 865 ± 240
yVKTAL [TENS3_855/A1] | 1650 ± 1800

same assay, conditions: MCF10A

Binder | GRB2 complex binding differential signal
yTMCPE [TENC1_770/A1] | 203 ± 150
ySLQHF [TENS1_1149/A1] | 45.6 ± 240
yQVSGL [TENS1_1254/A1] | 902 ± 310
yGGYST [TENS1_1323/A1] | -28.7 ± 380
ySTPED [TENS1_1326/A1] | 5050 ± 1500
yATING [TENS1_1404/A1] | 1830 ± 440
yNTSDP [TENS1_327/A1] | 1850 ± 610
yGTSPG [BCAR3_266/A1] | 2480 ± 710
yDNFSG [TENS1_339/A1] | 158 ± 260
yAKVKK [TENS1_366/A1] | 112 ± 140
yDYQPC [TENS1_796/A1] | 148 ± 160
yENQSP [TENS1_903/A1] | 46600 ± 7300
yENLSA [TENS3_333/A1] | 31300 ± 4600
yAKVRK [TENS3_354/A1] | 86.7 ± 170
ySFAPD [TENS3_601/A1] | 567 ± 260
yDNDAG [TENS3_780/A1] | 1820 ± 320
yVKTAL [TENS3_855/A1] | 693 ± 340

same assay, conditions: MDA-MB-231

Binder | GRB2 complex binding differential signal
yTMCPE [TENC1_770/A1] | 390 ± 350
ySLQHF [TENS1_1149/A1] | 566 ± 270
yQVSGL [TENS1_1254/A1] | 814 ± 340
yGGYST [TENS1_1323/A1] | 886 ± 1000
ySTPED [TENS1_1326/A1] | 3460 ± 720
yATING [TENS1_1404/A1] | 1340 ± 1000
yNTSDP [TENS1_327/A1] | 1200 ± 350
yGTSPG [BCAR3_266/A1] | 946 ± 460
yDNFSG [TENS1_339/A1] | 1120 ± 620
yAKVKK [TENS1_366/A1] | 707 ± 390
yDYQPC [TENS1_796/A1] | 201 ± 390
yENQSP [TENS1_903/A1] | 7470 ± 1600
yENLSA [TENS3_333/A1] | 28900 ± 5200
yAKVRK [TENS3_354/A1] | 462 ± 220
ySFAPD [TENS3_601/A1] | 862 ± 220
yDNDAG [TENS3_780/A1] | 2730 ± 410
yVKTAL [TENS3_855/A1] | 529 ± 300

same assay, conditions: T47D

Binder | GRB2 complex binding differential signal
ySLQHF [TENS1_1149/A1] | 741 ± 1000
yQVSGL [TENS1_1254/A1] | 848 ± 1200
yGGYST [TENS1_1323/A1] | 1940 ± 1100
ySTPED [TENS1_1326/A1] | 1940 ± 1100
yATING [TENS1_1404/A1] | 1610 ± 1000
yNTSDP [TENS1_327/A1] | 1240 ± 880
yGTSPG [BCAR3_266/A1] | 983 ± 1200
yDNFSG [TENS1_339/A1] | 2810 ± 1400
yENQSP [TENS1_903/A1] | 13000 ± 4200
yENLSA [TENS3_333/A1] | 28700 ± 11000
ySFAPD [TENS3_601/A1] | 508 ± 880
yDNDAG [TENS3_780/A1] | 8260 ± 2200
yVKTAL [TENS3_855/A1] | 1800 ± 1200
